Experimental data taken from the supplement of paper PMC10369915.
The list shows a part of the results. No stated cut-off is given here; in the data, active = 3.2 or more and inactive = the rest. Most of these values are background signal.

What follows are binders tested against SHP2 C-SH2 domain E139D (assay: enrichment score (SH2-bound / input frequency) (ratio); bacterial display of known human phosphotyrosine sites (pTyr-Var adds point mutants) read by sequencing; higher = stronger binding; tyrosines were phosphorylated by kinases first). Settings: peptide library: pTyr-Var.
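Further: displayed peptides selected on beads carrying the immobilized SH2 domain, with library peptides lacking any tyrosine serving as negative controls.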

| Binder | enrichment score |
| --- | --- |
| VTRKEYFIFLE [CAMKV_Y95] | inactive: 3.02 |
| VTHKEYFIFLE [CAMKV_Y95_R92H] | active: 3.59 |
| LVRAFYCERRR [CARD11_Y970] | inactive: 0.212 |
| IMAFFYMCDRA [CASD1_Y382_YF] | inactive: 2.3 |
| KKKKQYKDKYL [CASK_Y708] | inactive: 0.375 |
| QGQHWYSSSDK [CASP10_Y9] | inactive: 0.799 |
| QGQHWYSSSDT [CASP10_Y9_K14T] | inactive: 0.772 |
| SEDSEYFRAFE [CASQ2_Y178_K180R_YF] | inactive: 0.771 |
| GRLFAYPDTHR [CAT_Y358] | inactive: 1.1 |
| VTQEQYELYCE [CBL_Y368] | inactive: 0.822 |
| EAVSIYQFFGQ [CBLC_Y402_H405Y_YF] | inactive: 1.26 |
| SVGGLYRDMGA [CBX8_Y321_G317V] | inactive: 0.665 |
| KKRSVYIKVLF [CC2D2A_Y683_L684I] | inactive: 0.609 |
| ELTTCYRKKCC [CCBE1_Y70] | inactive: 0.749 |
| LWKWRYEELKE [CCDC102B_Y299_K298R] | inactive: 1.2 |
| LDLPGYCPLRE [CCDC116_Y291] | inactive: 0.773 |
| LDLPGYCLLRE [CCDC116_Y291_P293L] | inactive: 0.769 |
| ESDGAYIQRMQ [CCDC137_Y125_H127Q] | inactive: 0.594 |
| TSQSQYFSFRE [CCDC170_Y323] | inactive: 0.67 |

Each binder was assayed against SHP2 C-SH2 domain wild-type in the same assay as above. Settings: peptide library: pTyr-Var.

| Binder | enrichment score |
| --- | --- |
| VTRKEYFIFLE [CAMKV_Y95] | inactive: 3.14 |
| VTHKEYFIFLE [CAMKV_Y95_R92H] | active: 3.23 |
| LVRAFYCERRR [CARD11_Y970] | inactive: 0.15 |
| IMAFFYMCDRA [CASD1_Y382_YF] | inactive: 2.69 |
| KKKKQYKDKYL [CASK_Y708] | inactive: 0.396 |
| QGQHWYSSSDK [CASP10_Y9] | inactive: 0.8 |
| QGQHWYSSSDT [CASP10_Y9_K14T] | inactive: 0.949 |
| SEDSEYFRAFE [CASQ2_Y178_K180R_YF] | inactive: 0.733 |
| GRLFAYPDTHR [CAT_Y358] | inactive: 1.19 |
| VTQEQYELYCE [CBL_Y368] | inactive: 0.942 |
| EAVSIYQFFGQ [CBLC_Y402_H405Y_YF] | inactive: 1.41 |
| SVGGLYRDMGA [CBX8_Y321_G317V] | inactive: 0.756 |
| KKRSVYIKVLF [CC2D2A_Y683_L684I] | inactive: 0.794 |
| ELTTCYRKKCC [CCBE1_Y70] | inactive: 0.565 |
| LWKWRYEELKE [CCDC102B_Y299_K298R] | inactive: 1 |
| LDLPGYCPLRE [CCDC116_Y291] | inactive: 0.861 |
| LDLPGYCLLRE [CCDC116_Y291_P293L] | inactive: 1.81 |
| ESDGAYIQRMQ [CCDC137_Y125_H127Q] | inactive: 0.576 |
| TSQSQYFSFRE [CCDC170_Y323] | inactive: 0.525 |

These binders were tested against SHP2 N-SH2 domain L43F in the same assay as above. Settings: peptide library: pTyr-Var.

| Binder | enrichment score |
| --- | --- |
| VTRKEYFIFLE [CAMKV_Y95] | active: 3.24 |
| VTHKEYFIFLE [CAMKV_Y95_R92H] | active: 3.45 |
| LVRAFYCERRR [CARD11_Y970] | inactive: 0.209 |
| IMAFFYMCDRA [CASD1_Y382_YF] | inactive: 2.2 |
| KKKKQYKDKYL [CASK_Y708] | inactive: 0.395 |
| QGQHWYSSSDK [CASP10_Y9] | inactive: 0.647 |
| QGQHWYSSSDT [CASP10_Y9_K14T] | inactive: 0.948 |
| SEDSEYFRAFE [CASQ2_Y178_K180R_YF] | inactive: 0.712 |
| GRLFAYPDTHR [CAT_Y358] | inactive: 0.976 |
| VTQEQYELYCE [CBL_Y368] | inactive: 0.682 |
| EAVSIYQFFGQ [CBLC_Y402_H405Y_YF] | inactive: 1.29 |
| SVGGLYRDMGA [CBX8_Y321_G317V] | inactive: 0.624 |
| KKRSVYIKVLF [CC2D2A_Y683_L684I] | inactive: 0.784 |
| ELTTCYRKKCC [CCBE1_Y70] | inactive: 0.478 |
| LWKWRYEELKE [CCDC102B_Y299_K298R] | inactive: 0.867 |
| LDLPGYCPLRE [CCDC116_Y291] | inactive: 0.764 |
| LDLPGYCLLRE [CCDC116_Y291_P293L] | inactive: 0.754 |
| ESDGAYIQRMQ [CCDC137_Y125_H127Q] | inactive: 0.655 |
| TSQSQYFSFRE [CCDC170_Y323] | inactive: 0.73 |

The binders below were run against SHP2 N-SH2 domain T42A in the same assay as above. Settings: peptide library: pTyr-Var.

| Binder | enrichment score |
| --- | --- |
| VTRKEYFIFLE [CAMKV_Y95] | inactive: 2.17 |
| VTHKEYFIFLE [CAMKV_Y95_R92H] | inactive: 2.71 |
| LVRAFYCERRR [CARD11_Y970] | inactive: 0.124 |
| IMAFFYMCDRA [CASD1_Y382_YF] | inactive: 2.05 |
| KKKKQYKDKYL [CASK_Y708] | inactive: 0.277 |
| QGQHWYSSSDK [CASP10_Y9] | inactive: 0.687 |
| QGQHWYSSSDT [CASP10_Y9_K14T] | inactive: 0.79 |
| SEDSEYFRAFE [CASQ2_Y178_K180R_YF] | inactive: 0.505 |
| GRLFAYPDTHR [CAT_Y358] | inactive: 1.1 |
| VTQEQYELYCE [CBL_Y368] | inactive: 0.75 |
| EAVSIYQFFGQ [CBLC_Y402_H405Y_YF] | inactive: 1.19 |
| SVGGLYRDMGA [CBX8_Y321_G317V] | inactive: 0.608 |
| KKRSVYIKVLF [CC2D2A_Y683_L684I] | inactive: 1.16 |
| ELTTCYRKKCC [CCBE1_Y70] | inactive: 0.442 |
| LWKWRYEELKE [CCDC102B_Y299_K298R] | inactive: 0.779 |
| LDLPGYCPLRE [CCDC116_Y291] | inactive: 0.782 |
| LDLPGYCLLRE [CCDC116_Y291_P293L] | inactive: 0.887 |
| ESDGAYIQRMQ [CCDC137_Y125_H127Q] | inactive: 0.439 |
| TSQSQYFSFRE [CCDC170_Y323] | inactive: 0.649 |

The binders below were run against SHP2 N-SH2 domain T52S in the same assay as above. Settings: peptide library: pTyr-Var.

| Binder | enrichment score |
| --- | --- |
| VTRKEYFIFLE [CAMKV_Y95] | inactive: 2.67 |
| VTHKEYFIFLE [CAMKV_Y95_R92H] | inactive: 2.87 |
| LVRAFYCERRR [CARD11_Y970] | inactive: 0.137 |
| IMAFFYMCDRA [CASD1_Y382_YF] | inactive: 2.03 |
| KKKKQYKDKYL [CASK_Y708] | inactive: 0.411 |
| QGQHWYSSSDK [CASP10_Y9] | inactive: 0.637 |
| QGQHWYSSSDT [CASP10_Y9_K14T] | inactive: 0.785 |
| SEDSEYFRAFE [CASQ2_Y178_K180R_YF] | inactive: 0.642 |
| GRLFAYPDTHR [CAT_Y358] | inactive: 0.996 |
| VTQEQYELYCE [CBL_Y368] | inactive: 0.869 |
| EAVSIYQFFGQ [CBLC_Y402_H405Y_YF] | inactive: 1.51 |
| SVGGLYRDMGA [CBX8_Y321_G317V] | inactive: 0.676 |
| KKRSVYIKVLF [CC2D2A_Y683_L684I] | inactive: 0.961 |
| ELTTCYRKKCC [CCBE1_Y70] | inactive: 0.485 |
| LWKWRYEELKE [CCDC102B_Y299_K298R] | inactive: 1.17 |
| LDLPGYCPLRE [CCDC116_Y291] | inactive: 1.1 |
| LDLPGYCLLRE [CCDC116_Y291_P293L] | inactive: 0.813 |
| ESDGAYIQRMQ [CCDC137_Y125_H127Q] | inactive: 0.712 |
| TSQSQYFSFRE [CCDC170_Y323] | inactive: 0.596 |

Each binder was assayed against SHP2 N-SH2 domain wild-type in the same assay as above. Settings: peptide library: pTyr-Var.

| Binder | enrichment score |
| --- | --- |
| VTRKEYFIFLE [CAMKV_Y95] | inactive: 2.77 |
| VTHKEYFIFLE [CAMKV_Y95_R92H] | inactive: 3.19 |
| LVRAFYCERRR [CARD11_Y970] | inactive: 0.22 |
| IMAFFYMCDRA [CASD1_Y382_YF] | inactive: 2.52 |
| KKKKQYKDKYL [CASK_Y708] | inactive: 0.301 |
| QGQHWYSSSDK [CASP10_Y9] | inactive: 0.663 |
| QGQHWYSSSDT [CASP10_Y9_K14T] | inactive: 0.815 |
| SEDSEYFRAFE [CASQ2_Y178_K180R_YF] | inactive: 0.702 |
| GRLFAYPDTHR [CAT_Y358] | inactive: 1.14 |
| VTQEQYELYCE [CBL_Y368] | inactive: 0.836 |
| EAVSIYQFFGQ [CBLC_Y402_H405Y_YF] | inactive: 1.49 |
| SVGGLYRDMGA [CBX8_Y321_G317V] | inactive: 0.799 |
| KKRSVYIKVLF [CC2D2A_Y683_L684I] | inactive: 0.87 |
| ELTTCYRKKCC [CCBE1_Y70] | inactive: 0.77 |
| LWKWRYEELKE [CCDC102B_Y299_K298R] | inactive: 1.04 |
| LDLPGYCPLRE [CCDC116_Y291] | inactive: 1.01 |
| LDLPGYCLLRE [CCDC116_Y291_P293L] | inactive: 1.16 |
| ESDGAYIQRMQ [CCDC137_Y125_H127Q] | inactive: 0.811 |
| TSQSQYFSFRE [CCDC170_Y323] | inactive: 0.655 |
